# Counter-ions that a name gives are not always drawn. Whole data set: some 2,800 compounds, median “cell viability relative to vehicle” near 0.98, cut for the lowest 2% near 0.45. The list shows a part of the results.
# System: NCI-H2228 alectinib-DTP
# Assay: cell viability relative to vehicle (fraction of vehicle); NCI-H2228 is an ALK-positive lung cancer line and DTP means drug-tolerant persister; higher = less growth inhibition
# Conditions: 100 nM; treatment time 6 days
# Summary of the method: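 The 3114-agent TargetMol anti-cancer compound library was tested at 100 nM for 6 days on parental NCI-H2228 cells and on persister cells derived with 1000 nM of a targeted drug for 13 days. ATP readout by the CellTiter-Glo 3D Cell Viability Assay gave cell viability relative to DMSO vehicle-treated cells.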
row,Compound,cell viability
1,Cc1nc(C(=O)NCC(=O)O)c(O)c2ccc(Oc3ccccc3)cc12 [Roxadustat],0.941
2,COC(=O)N[C@@H](C)CNc1nccc(-c2cn(C(C)C)nc2-c2cc(Cl)cc(NS(C)(=O)=O)c2F)n1 [Encorafenib],0.985
3,CC[C@@H]1C(=O)N(C)c2cnc(Nc3ccc(C(=O)N[C@H]4CC[C@H](N5CCN(CC6CC6)CC5)CC4)cc3OC)nc2N1C(C)C [Volasertib],0.595
4,CC#C[C@]1(O)CC[C@H]2[C@@H]3CCC4=CC(=O)CCC4=C3[C@@H](c3ccc(N(C)C)cc3)C[C@@]21C [Mifepristone],1.09
5,COc1ccc(Cl)cc1C(=O)NCCc1ccc(S(=O)(=O)NC(=O)NC2CCCCC2)cc1 [Glyburide],0.923
6,Nc1nc(=O)n([C@@H]2CS[C@H](CO)O2)cc1F [Emtricitabine],1.03
7,CC(C)=CCC1=C(O)C(=O)c2ccccc2C1=O [Lapachol],0.96
8,Cc1c(O)c(C)c2c(c1O)C(=O)C[C@@H](c1ccc(O)cc1)O2 [Farrerol],0.874
9,CC(=O)O[C@H]1CC(=O)OC(C)(C)[C@@H]2CC(=O)[C@]3(C)[C@H](CC[C@@]4(C)[C@@H](c5ccoc5)OC(=O)[C@H]5O[C@]543)[C@@]12C [Nomilin],1.15
10,COc1ccc2c3n(c(=NC(=O)c4cccnc4)nc2c1OC)CCN3,0.447
11,O=P(O)(O)C(O)(Cn1ccnc1)P(=O)(O)O [Zoledronic Acid],0.799
12,COC(=O)[C@H](CC(C)C)NC(=O)c1ccc(NC[C@@H](N)CS)cc1-c1cccc2ccccc12,1.08
13,O=C(Nc1cnc(Cl)nc1)c1ccc(F)c(F)c1,1.03
14,Cc1cc(C(C)(C)C)cc(C)c1CC1=NCCN1 [Xylometazoline hydrochloride],1.04
15,O=c1c(O)c(-c2ccc(O)cc2)oc2cc(O)cc(O)c12 [Kaempferol],0.87
16,NC[C@@](O)(c1ccc(Cl)cc1)c1ccc(-c2cn[nH]c2)cc1,1.02
17,CC(C)NC(=O)C1CCC(n2c(NC(=O)c3ccc(F)cc3)nc3ccc(CN4CCC(C(C)(C)O)CC4)cc32)CC1 (centres undefined) [Belizatinib],1.1
18,N#C/C(=C(/N)Sc1ccc(N)cc1)c1ccccc1C(F)(F)F,0.926
19,COc1cc2nc(N3CCN(C(=O)C4COc5ccccc5O4)CC3)nc(N)c2cc1OC (centres undefined) [Doxazosin mesylate],0.911
20,CC(C)n1ncnc1-c1cn2c(n1)-c1ccc(O[C@@H](C)C(N)=O)cc1OCC2,0.717
21,CCCc1ccc(OCC(=O)N(Cc2nc(-c3cccnc3)no2)C(C)C)cc1,1.14
22,N[C@H]1CONC1=O [L-Cycloserine],1.1
23,CNC(=O)c1ccc(N2C(=S)N(c3ccc(C#N)c(C(F)(F)F)c3)C(=O)C2(C)C)cc1F [Enzalutamide],0.886
24,O=C(CCBr)N1CCN(C(=O)CCBr)CC1 [Pipobroman],0.901
25,CC(C)(C)c1cc(NC(=O)Nc2ccc(-c3cn4c(n3)sc3cc(OCCN5CCOCC5)ccc34)cc2)no1 [Quizartinib],0.89

row,Compound,cell viability
1,CN1CCN(c2ccc(-c3cccc(CN4CCOCC4)c3)cc2NC(=O)c2c[nH]c(=O)cc2C(F)(F)F)CC1,0.918
2,Nc1nc2c(cnn2CCc2ccccc2)c2nc(-c3ccco3)nn12,0.868
3,COc1cc2nccc(Oc3ccc(NC(=O)c4cn(C(C)C)c(=O)n(-c5ccc(F)cc5)c4=O)cc3F)c2cc1OC,0.893
4,OCC1OC(O)CC(O)C1O [2-Deoxy-D-glucose],1.13
5,CCN(CC)CCCC[C@H](NC(=O)[C@H](CC(C)C)NC(=O)[C@H](C)NC(=O)[C@H](Cc1ccccc1)NC(=O)c1ccc(C(C)(C)C)cc1)C(=O)N[C@@H](CO)C(=O)OC,1.08
6,Cc1c(N)c(=O)n(-c2ccccc2)n1C [4-Aminoantipyrine],1.18
7,CCC(Sc1nnc2c3ccccc3n(CC)c2n1)C(=O)Nc1ccccc1OC (centres undefined),1.01
8,O=C(/C=C/c1cccc(S(=O)(=O)Nc2ccccc2)c1)NO [Belinostat],0.867
9,CN[C@H]1CC[C@@H](c2ccc(Cl)c(Cl)c2)c2ccccc21 [Sertraline hydrochloride],0.99
10,CN1CCc2nc(C(=O)N[C@@H]3C[C@@H](C(=O)N(C)C)CC[C@@H]3NC(=O)C(=O)Nc3ccc(Cl)cn3)sc2C1 [Edoxaban Tosylate Monohydrate],1.03
11,OCCn1cc(-c2ccc3c(c2)CC/C3=N\O)c(-c2ccncc2)n1,1.14
12,CC[C@H]1OC(=O)[C@H](C)[C@@H](O[C@H]2C[C@@](C)(OC)[C@@H](O)[C@H](C)O2)[C@H](C)[C@@H](O[C@@H]2O[C@H](C)C[C@H](N(C)C)[C@H]2O)[C@](C)(O)C[C@@H](C)CN(C)[C@H](C)[C@@H](O)[C@]1(C)O [Azithromycin dihydrate],1.02
13,CCOC(=O)C1=C(C)NC(=S)NC1c1cccc(O)c1 (centres undefined) [Monastrol],1.02
14,CCn1c(N)c(C(=O)NC)c(=O)c2ccc(C#CC(C)(O)COC)nc21 (centres undefined),1.01
15,Cc1cc(O)c(-c2ccc(C(C)CN)cc2)c2c1[nH]c(=O)c1sccc12 (centres undefined),0.15
16,CC(C)[N+]1(C)[C@@H]2CC[C@H]1C[C@@H](OC(=O)C(CO)c1ccccc1)C2 (some centres undefined) [Ipratropium bromide monohydrate],1.21
17,CC(C)[N+]1(C)[C@@H]2CC[C@H]1C[C@@H](OC(=O)C(CO)c1ccccc1)C2 (some centres undefined) [Ipratropium Bromide],1
18,Cc1ccc(-c2cc(C(F)(F)F)nn2-c2ccc(S(N)(=O)=O)cc2)cc1 [Celecoxib],1.23
19,Cc1ccc(NC(=O)CCCCCC(=O)Nc2ccccc2N)cc1 [Pimelic diphenylamide 106],0.966
20,Nc1ccc(S(=O)(=O)Nc2nccs2)cc1 [Sulfathiazole],1.08
21,O=C(O)c1cccc(-c2noc(-c3ccccc3F)n2)c1 [Ataluren],0.915
22,Cc1c(-c2ccc(O)cc2)n(Cc2ccc(OCCN3CCCCCC3)cc2)c2ccc(O)cc12 [Bazedoxifene acetate],1.07
23,CCc1cc2c(cc1CC)CC(NC[C@H](O)c1ccc(O)c3[nH]c(=O)ccc13)C2 [Indacaterol],0.931
24,CCc1cc2c(cc1CC)CC(NC[C@H](O)c1ccc(O)c3[nH]c(=O)ccc13)C2 [Indacaterol maleate],1

# Reference: the supplement of paper PMC10600219
